Results: the supplement of paper PMC10126150
Sequences with one replicate were seen in a single cluster, so their values are uncertain.

The sequences below were run on ATP (assay: switch fluorescence ratio, 500 uM ATP over buffer (Cy3 cluster intensity, sum of 5 cycles each) (fold (ratio)); higher = stronger signal-on switching upon ATP binding; sequences stand for … in TCGTCGGCAGCGTCAGATGTGTATAAGAGACAGTTTTTTTTTTTTTTTTTTTTTTTTT…TC). Settings: aptamer strand: ATP DNA aptamer (quencher-CACCTGGGGGAGTATTGCGGAGGAAGG + anchor), 100 nM annealed; ATP concentration: 500 uM; one replicate.
Method in brief: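 Imaging in selection buffer was followed by imaging after 15 min with 500 uM ATP at 22 °C, for Cy3-labelled switching-strand clusters annealed to 100 nM quencher-labelled ATP aptamer on a modified Illumina MiSeq flow-cell. Five of these buffer/ATP cycles ran, separated by NaOH stripping and re-annealing. The fluorescence ratio per cluster is summed target-cycle over summed buffer-cycle Cy3 intensity, averaged per switch-domain sequence; clusters outside 100-1000 RFU were removed.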
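Further: ATP exposure 15 min at 22 °C before imaging.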

| Sequence | switch fluorescence ratio |
| --- | --- |
| CCCATTTCTT | 0.982 |
| TAACTCGACT | 1.06 |
| TTACGGCGCC | 1.02 |
| AGGGCAAACC | 1.05 |
| CCAATAAAGA | 0.985 |
| TGAATCATCA | 0.985 |
| ACTTCAGCTG | 0.971 |
| GCACGAATTG | 1.11 |
| AAATGTCAGG | 1.04 |
| AGCAGTGAGT | 0.966 |
| ATATGTGCAA | 1.07 |
| TTAAAAGAG | 1.03 |
| CGCTCAGGCA | 1.04 |
| CCACTAACCA | 1.13 |
| CAGACTTAAA | 1.04 |
| GGCAATCTGT | 1.06 |
| TTTTGTA | 0.953 |
| ACTATCGCTT | 1.2 |
| CACTTAAACA | 1.04 |
| GTGGAAAAGA | 0.951 |
| TTGATATTTA | 0.966 |
| ATTTAGCCAT | 1.01 |
| AGCGGCGAAC | 1.11 |

| Sequence | switch fluorescence ratio |
| --- | --- |
| TTATCCCCTG | 1.06 |
| TGCAGCCCAC | 1.41 |
| AAGACCTGAG | 1.06 |
| AACTAGGGC | 1.04 |
| CTAGCTAGGT | 1.02 |
| TTAAGAGCCG | 0.978 |
| ACTCGACGTG | 0.931 |
| TGCTGATACG | 1.04 |
| ATACAGATCT | 1.02 |
| ACCGGTTTAC | 1.17 |
| GCGCTAGGC | 1.14 |
| CTGGAAGCGT | 1.04 |
| GTCACTGGGG | 1.06 |
| ACCGCTGGTG | 1.74 |
| TCAGAGAAAG | 1.01 |
| CATTTTGATT | 0.99 |
| ATCGAAAGCA | 0.974 |
| CGTGAGATAC | 1.46 |
| ATCTCACCAA | 1.15 |
| TTATTTTCCG | 0.97 |
| TCACAAGAGG | 1 |
| CTCTCGTAGA | 1.04 |
| CAAGCCCTAT | 1 |

| Sequence | switch fluorescence ratio |
| --- | --- |
| TGCCACCTG | 1.02 |
| AACTTATGTT | 0.964 |
| TCTTTTGTTT | 1.31 |
| CGTTTCGTGA | 1.03 |
| CTGGGCAA | 1.09 |
| AAGATTTCTA | 1.03 |
| TTGCTCGTAC | 1.17 |
| TGTTATTATG | 0.995 |
| CAATAGGCGG | 0.997 |
| AACACTTGGG | 1.01 |
| ATCTGCAGCC | 1.29 |
| GAGACTGTTA | 1.03 |
| TCCGTACGCT | 4.21 |
| TATTTACCCG | 1.01 |
| CGTTCCACTG | 1.03 |
| TGACCGATTA | 0.994 |
| TGGGGGCGC | 0.988 |
| TTGGAATTT | 1.03 |
| GCTGCGCCAC | 2.29 |
| GAGTCGCCAC | 0.961 |
| CGGCAACCAT | 1.05 |
| AGGTCTCCGT | 0.987 |
| AAACTAACG | 1.28 |

| Sequence | switch fluorescence ratio |
| --- | --- |
| TTAACGCTGA | 1.06 |
| GGGTAATAGC | 1.02 |
| GTTTGCTGTG | 1.03 |
| GACTTAATGC | 1.4 |
| AGTGTACGCA | 1.1 |
| TAGCACTGGC | 1 |
| CTTAGAGGGG | 0.996 |
| CGTTTTCCTC | 0.91 |
| CCCGATTTGT | 1.01 |
| CAACCTGGAA | 1.06 |
| TCTGTCTAAG | 1.03 |
| ATTGGACGTG | 0.952 |
| TTAGGTGCCG | 1 |
| CGCCTTTGTT | 0.996 |
| GCCAGAGTAT | 1 |
| AGGTCACGAT | 0.991 |
| AAGTAGCGAG | 0.986 |
| AGAACAACCC | 1.05 |
| AGTTGCCTTG | 0.982 |
| TTGACTTAGA | 0.954 |
| CACTCAGCGG | 1.18 |
| GGAACTGCGG | 0.951 |
| ATACGCTCCG | 1.05 |

| Sequence | switch fluorescence ratio |
| --- | --- |
| ACGTGTGCTC | 1.04 |
| AAGCGGGGCA | 0.967 |
| TCAGCGG | 1.03 |
| TTAGTAGCTG | 0.866 |
| ATTAGTGAT | 0.982 |
| GGGTCATATA | 0.973 |
| TGGGTCCTGA | 1.05 |
| CGAGGCGTTC | 1.85 |
| ACCAGGTACA | 1.12 |
| TCGTTCTGAT | 0.942 |
| AGCCCAGGCA | 1.03 |
| ATGTCATGGT | 0.941 |
| CGATCAGCTG | 1.03 |
| TCCCATTAGA | 0.981 |
| AAAAAGTAAA | 1.07 |
| GATGATAAGA | 1.04 |
| GCAGGCGGAG | 1.02 |
| AGCGGAGGAA | 1.04 |
| TGGCCGAATG | 0.95 |
| GGTTTGTCTG | 0.912 |
| AGGTGGAGCA | 0.944 |
| GTCAGCATTA | 1.22 |
| TTGCGGATCC | 1.03 |

| Sequence | switch fluorescence ratio |
| --- | --- |
| CCCCGGAAAT | 0.981 |
| TAAGTAGTGA | 1.05 |
| CCAGTGGATT | 1.02 |
| AGGGGTAGCA | 0.962 |
| CCAGAATAGA | 0.99 |
| CCATGTATGC | 0.958 |
| GGAATTGTGC | 0.985 |
| TCAGATTCCG | 0.995 |
| TGGGGTGCTA | 1.01 |
| TGGTATCTGA | 0.954 |
| CGATTCGTGG | 1 |
| TAAGTTAACC | 0.942 |
| GTTTAAGAAC | 1.05 |
| AGGAAGCGAG | 0.973 |
| CGCTGAGGGG | 1.27 |
| AGTAGTCAAG | 0.977 |
| CCAGAATTCC | 1.05 |
| ATACACCTTG | 0.997 |
| AATAGGCTTG | 1 |
| TACTATTTAA | 1 |
| AACATCGATG | 1.02 |
| ACTTTCCGGT | 1.06 |
| TATTAAGCG | 0.997 |

| Sequence | switch fluorescence ratio |
| --- | --- |
| ATGGTACAG | 1.02 |
| CACGAGAAAA | 1.06 |
| AGTCACAACT | 1.02 |
| CGTAACAGGG | 0.979 |
| AGGCACTGTA | 1.07 |
| CGACAATTCC | 1.57 |
| TTGGCGTTAG | 0.98 |
| AGAGAAGATT | 1 |
| ATCTGGTCTC | 0.998 |
| TCTCAGGCCG | 1.02 |
| AGTGTCGTTC | 0.979 |
| ATAGCCTCTT | 1.01 |
| TAGTTTCACT | 1.03 |
| TTGGATGTTA | 1.03 |
| CTTTTCGACC | 1.11 |
| TAGTTCCCC | 1 |
| GCAGTAAGGT | 1 |
| GGGGCGCCTT | 1.01 |
| TTTCCAGGGC | 1.34 |
